Results on 146 sequences are retold here after the BET-seq Pho4 binding data (Le et al. 2018).

This is one part of the list. These are noisy estimates, calculated here from bound and input reads.

For this experiment, the target named is T1, Pho4 (S. cerevisiae) (UniProt P07270).
T1 sequence: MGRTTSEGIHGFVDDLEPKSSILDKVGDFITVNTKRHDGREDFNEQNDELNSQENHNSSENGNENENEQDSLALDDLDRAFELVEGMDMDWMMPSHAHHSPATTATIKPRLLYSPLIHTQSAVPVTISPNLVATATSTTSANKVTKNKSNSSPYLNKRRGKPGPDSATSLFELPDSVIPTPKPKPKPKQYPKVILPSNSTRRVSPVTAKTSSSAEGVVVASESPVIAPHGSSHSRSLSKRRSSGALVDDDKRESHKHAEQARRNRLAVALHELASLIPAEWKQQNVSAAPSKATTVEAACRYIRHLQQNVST
Description: relative binding free energy (BET-seq); higher = weaker binding. Conditions: reference: library average.
As to ATTGTCACGTGAGTAC, the “relative binding free energy” value is 0.36 kcal/mol.
As to TTTTCCACGTGGAGTG, the “relative binding free energy” value is -0.04 kcal/mol.
As for TAAGTCACGTGGATGG, the “relative binding free energy” value was 0 kcal/mol.
Then ATAAACACGTGGGGGA, with -0.09 kcal/mol.
As to GGGCGCACGTGGAGTG, the “relative binding free energy” value is -0.07 kcal/mol.
Turning to TTTGCCACGTGTAAAT, the “relative binding free energy” value amounted to 0.14 kcal/mol.
Consider CGTTGCACGTGAGTAT, for which the “relative binding free energy” value stood at 0.28 kcal/mol.
Then GTAGTCACGTGGTTTA, with 0.11 kcal/mol; and GGGTACACGTGCGCTG, with -0.01 kcal/mol.
As for CGTGACACGTGTTGGC, the “relative binding free energy” value was 0.08 kcal/mol.
For GATTGCACGTGTGATT, the “relative binding free energy” value came to 0.01 kcal/mol.
Then TTGGACACGTGATTTT, with 0.12 kcal/mol.
For the sequence TAAATCACGTGGTGCG, the “relative binding free energy” value was found to be 0.22 kcal/mol.
Then TTATGCACGTGGGGAC, with -0.2 kcal/mol; and GGCATCACGTGAGGGA, with 0.46 kcal/mol.
Consider GGGGTCACGTGGTTCC, for which the “relative binding free energy” value stood at 0.21 kcal/mol.
Regarding CCTGGCACGTGTATGG, the “relative binding free energy” value is -0.13 kcal/mol.
Then TAGCGCACGTGTTGTA, with -0.18 kcal/mol.
As to CTGAGCACGTGGTTTA, the “relative binding free energy” value was -0.06 kcal/mol.
On to GGGGCCACGTGGCGGA, for which the “relative binding free energy” value is -0.22 kcal/mol.
Then TGGACCACGTGAGGGT, with 0.14 kcal/mol.
Next, GAGTGCACGTGGTGCA: -0.09 kcal/mol; AATGTCACGTGGAGTG: 0.02 kcal/mol; CGACTCACGTGTTGGG: 0.21 kcal/mol.
Take AGTGACACGTGTCGTA: the “relative binding free energy” value was determined as 0.02 kcal/mol.
AAGATCACGTGTGGTT: the “relative binding free energy” value amounted to 0.26 kcal/mol.
As for TCAGGCACGTGGTGTT, the “relative binding free energy” value was -0.17 kcal/mol.
With TGTTGCACGTGAGGGG, the “relative binding free energy” value was 0.28 kcal/mol.
In the case of GGTATCACGTGGGCGA, the “relative binding free energy” value is -0.03 kcal/mol.
Consider GTTTTCACGTGGGACA, for which the “relative binding free energy” value worked out at 0.19 kcal/mol.
As for GGCGTCACGTGGCGTG, the “relative binding free energy” value was 0.04 kcal/mol.
Then TAATCCACGTGGTGTG, with -0.04 kcal/mol.
As to AGTTACACGTGTATTT, the “relative binding free energy” value was 0.13 kcal/mol.
For the sequence TTTTTCACGTGTCAGA, the “relative binding free energy” value is 0.37 kcal/mol.
Next, CGGGTCACGTGTAGCT: 0.35 kcal/mol.
In the case of GGTAGCACGTGCATAG, the “relative binding free energy” value was -0.12 kcal/mol.
With TGCTGCACGTGGGAGT, the “relative binding free energy” value is -0.15 kcal/mol.
Take AGGCGCACGTGTTGTG: the “relative binding free energy” value was -0.05 kcal/mol.
Then GTTGACACGTGACTGT, with 0.19 kcal/mol.
For the sequence TATTACACGTGATTAG, the “relative binding free energy” value stood at 0.17 kcal/mol.
CGTTGCACGTGGGTTG: the “relative binding free energy” value was -0.19 kcal/mol.
For ATCTGCACGTGTGTGG, the “relative binding free energy” value came to 0 kcal/mol.
With GTGGGCACGTGGTAAA, the “relative binding free energy” value is -0.02 kcal/mol.
On to GTTAACACGTGGATTG, for which the “relative binding free energy” value is -0.07 kcal/mol.
Next, ATGAGCACGTGGGATG: -0.2 kcal/mol; TTATTCACGTGAATCG: 0.49 kcal/mol; AATTTCACGTGGACGT: 0.33 kcal/mol.
With TTTCCCACGTGGGTTT, the “relative binding free energy” value is -0.23 kcal/mol.
As to CTCGGCACGTGGGGGT, the “relative binding free energy” value was -0.23 kcal/mol.
With ATCGTCACGTGTTAAG, the “relative binding free energy” value worked out at 0.14 kcal/mol.
For TGCGGCACGTGAGGTC, the “relative binding free energy” value worked out at 0.18 kcal/mol.
As to ATCGTCACGTGGCTTG, the “relative binding free energy” value is 0.04 kcal/mol.
Turning to CAAGGCACGTGAGTGG, the “relative binding free energy” value turned out to be 0.2 kcal/mol.
Next, TGGTGCACGTGGAGTG: -0.11 kcal/mol; TGGATCACGTGATGGA: 0.43 kcal/mol.
Next, TATGGCACGTGGGGCT: -0.25 kcal/mol; AGAGGCACGTGATAGT: 0.08 kcal/mol; AGTCTCACGTGATGTA: 0.16 kcal/mol.
For the sequence TATTCCACGTGGAGTG, the “relative binding free energy” value worked out at 0.07 kcal/mol.
For TGACCCACGTGTGGGG, the “relative binding free energy” value was -0.01 kcal/mol.
On to ATGCGCACGTGTTTAT, for which the “relative binding free energy” value was determined as 0 kcal/mol.
Next, CCGGGCACGTGAGTGG: 0.05 kcal/mol; TAGGACACGTGGGCGA: -0.17 kcal/mol.
In the case of TTGGCCACGTGTGCAG, the “relative binding free energy” value is -0.09 kcal/mol.
As for ATTATCACGTGTGATA, the “relative binding free energy” value stood at 0.17 kcal/mol.
GAGGGCACGTGGAATG: the “relative binding free energy” value is -0.03 kcal/mol.
Take AGGTACACGTGGCGGT: the “relative binding free energy” value turned out to be 0 kcal/mol.
As to GGATACACGTGGGATA, the “relative binding free energy” value is 0.16 kcal/mol.
Consider TTTTTCACGTGTCCGG, for which the “relative binding free energy” value was found to be 0.33 kcal/mol.
TGTGCCACGTGGATGG: the “relative binding free energy” value was -0.05 kcal/mol.
In the case of GGGGTCACGTGTATTT, the “relative binding free energy” value is 0.21 kcal/mol.
As for CGGGGCACGTGCGAGT, the “relative binding free energy” value was -0.29 kcal/mol.
For GAGGTCACGTGCGATT, the “relative binding free energy” value worked out at 0.22 kcal/mol.
Next, GTTATCACGTGATGAG: 0.31 kcal/mol; GCGGTCACGTGAGTTT: 0.36 kcal/mol; ACGGGCACGTGGTGCT: -0.27 kcal/mol.
With TTAAGCACGTGAAAAG, the “relative binding free energy” value is 0.29 kcal/mol.
Consider TGGATCACGTGGCGAT, for which the “relative binding free energy” value worked out at 0.09 kcal/mol.
Take AATTTCACGTGTAGCT: the “relative binding free energy” value stood at 0.27 kcal/mol.
Next, AGAGCCACGTGTGGTT: -0.02 kcal/mol; GATGGCACGTGAATTA: 0.24 kcal/mol; TAACTCACGTGGCGTG: 0.22 kcal/mol.
Next, TTCGACACGTGAGTGG: 0.33 kcal/mol.
As to GGTTGCACGTGAAGAT, the “relative binding free energy” value came out at 0.34 kcal/mol.
For the sequence TACAACACGTGTGTGT, the “relative binding free energy” value was 0.03 kcal/mol.
On to GGTCGCACGTGGAGGA, for which the “relative binding free energy” value is -0.04 kcal/mol.
On to GATAGCACGTGGTGTT, for which the “relative binding free energy” value is -0.02 kcal/mol.
As for TTTGTCACGTGAAGGA, the “relative binding free energy” value worked out at 0.33 kcal/mol.
As for GCCGTCACGTGGTAGT, the “relative binding free energy” value is 0.08 kcal/mol.
In the case of AGGTTCACGTGGGTGG, the “relative binding free energy” value is 0.21 kcal/mol.
Then TGTTCCACGTGTGGTT, with 0.14 kcal/mol; and CTAGACACGTGTGTGT, with -0.01 kcal/mol.
As for TATTACACGTGTGACG, the “relative binding free energy” value was determined as 0.14 kcal/mol.
TATGTCACGTGTTAGT: the “relative binding free energy” value was determined as 0.12 kcal/mol.
As to TGATGCACGTGTCGGA, the “relative binding free energy” value turned out to be 0.11 kcal/mol.
Consider AGGATCACGTGTGATA, for which the “relative binding free energy” value stood at 0.19 kcal/mol.
GGTTACACGTGTTTAA: the “relative binding free energy” value was found to be 0.1 kcal/mol.
In the case of TGTGACACGTGTCAGA, the “relative binding free energy” value came to 0.17 kcal/mol.
Then TGGATCACGTGGCTGT, with 0.12 kcal/mol.
Next, ATTGGCACGTGGAATT: -0.03 kcal/mol.
As to GGTGACACGTGAGTTG, the “relative binding free energy” value came to 0.3 kcal/mol.
Next, GGAGTCACGTGACTGT: 0.38 kcal/mol; TGGTTCACGTGAGTCC: 0.3 kcal/mol; GTATTCACGTGGGAGT: 0.14 kcal/mol.
Then CTGGGCACGTGTGGGC, with -0.18 kcal/mol; and GTATTCACGTGTTGAT, with 0.25 kcal/mol; and AGGGGCACGTGGAACG, with -0.19 kcal/mol.
In the case of CGGTTCACGTGTTCAT, the “relative binding free energy” value worked out at 0.23 kcal/mol.
GTCTACACGTGTTATG: the “relative binding free energy” value worked out at 0.2 kcal/mol.
For the sequence GGGTTCACGTGGGCTG, the “relative binding free energy” value amounted to 0.16 kcal/mol.
Consider CAAAGCACGTGTTTGA, for which the “relative binding free energy” value was 0.14 kcal/mol.
Turning to TTAATCACGTGAACGG, the “relative binding free energy” value was 0.49 kcal/mol.
In the case of AGGGACACGTGGGTGG, the “relative binding free energy” value is -0.16 kcal/mol.
Next, TTTAGCACGTGGTGTA: -0.23 kcal/mol; AGAGGCACGTGGGGAT: -0.24 kcal/mol.
Take GGGGGCACGTGATTCG: the “relative binding free energy” value was -0.07 kcal/mol.
Regarding GGTATCACGTGGGTGC, the “relative binding free energy” value was 0.06 kcal/mol.
In the case of GGGCTCACGTGTACGG, the “relative binding free energy” value is 0.29 kcal/mol.
For TATAACACGTGAGAGG, the “relative binding free energy” value amounted to 0.34 kcal/mol.
With GTCGCCACGTGTTGGG, the “relative binding free energy” value is -0.11 kcal/mol.
Turning to ACAGTCACGTGTGGAA, the “relative binding free energy” value is 0.31 kcal/mol.
Turning to TATAGCACGTGATTTA, the “relative binding free energy” value worked out at 0.19 kcal/mol.
For the sequence GGTAACACGTGTGTAA, the “relative binding free energy” value is 0.12 kcal/mol.
With GGAATCACGTGTGGGA, the “relative binding free energy” value was 0.14 kcal/mol.
As to AAGGGCACGTGGGTAC, the “relative binding free energy” value is -0.26 kcal/mol.
For the sequence AGTAACACGTGAGAGT, the “relative binding free energy” value is 0.19 kcal/mol.
As for CTTGGCACGTGGAAGA, the “relative binding free energy” value was -0.03 kcal/mol.
In the case of TGGGCCACGTGCGTGT, the “relative binding free energy” value was -0.27 kcal/mol.
As to TATAACACGTGTGTAG, the “relative binding free energy” value is -0.13 kcal/mol.
On to AGTCTCACGTGGTTTA, for which the “relative binding free energy” value worked out at 0.17 kcal/mol.
Then TTCGACACGTGGTGGC, with 0.04 kcal/mol; and TCTTCCACGTGGGGTA, with 0.02 kcal/mol.
Then GTTGCCACGTGGTTAT, with -0.29 kcal/mol; and GGTGTCACGTGTCTTG, with 0.15 kcal/mol.
Regarding ATTGGCACGTGCAGAG, the “relative binding free energy” value is -0.23 kcal/mol.
Next, AGCGTCACGTGGCAGT: 0.06 kcal/mol.
As to CGTAGCACGTGGTGTG, the “relative binding free energy” value was -0.18 kcal/mol.
Turning to TATCTCACGTGTGGGG, the “relative binding free energy” value was 0.22 kcal/mol.
TACAACACGTGTTGTT: the “relative binding free energy” value is -0.03 kcal/mol.
As for TTATGCACGTGGACGT, the “relative binding free energy” value was -0.02 kcal/mol.
As for TAGTGCACGTGTTGCT, the “relative binding free energy” value is 0.12 kcal/mol.
Turning to CCGGGCACGTGGGAGG, the “relative binding free energy” value is -0.12 kcal/mol.
Then TTTTTCACGTGTTTGC, with 0.27 kcal/mol; and AACGGCACGTGATGTG, with 0.12 kcal/mol; and TCCTGCACGTGGGTGG, with -0.28 kcal/mol.
Take CGTTTCACGTGGGAGG: the “relative binding free energy” value worked out at 0.27 kcal/mol.
